B1: TPR 5TU (parent)
chain: GGAUCUUCUCGAUCUAACAAAAAAGACAAAUCUGCCACAAAGCUUGAGAGCAUCUUCGGAUGCAGAGGCGGCAGCCUUCGGUGGCGCGAUAGCGCCAACGUUCUCAACUAUGACACGCAAAACGCGUGCUCCGUUGAAUGGAGUUUAUCAUG

This sample is rich in variants without activity. A value given as a limit tells only on which side of the number the result lay.

The variants in this data set derive from B1. The data set can be described thus: polymerase ribozyme fitness, log enrichment relative to wild type (log ratio); higher = more active; in vitro selection for triplet polymerase activity. A digest of the protocol: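 Mutant libraries of both subunits of a heterodimeric triplet polymerase ribozyme were PCR-built, transcribed, and selected once in triplicate, with frozen incubation at −7 °C and capture of gel-excised extended constructs on streptavidin beads before RT-PCR. Illumina sequencing of input and output libraries was filtered to genotypes with ≥10 input reads and ≥1 read per output. Fitness is the logarithm of genotype enrichment over wild-type enrichment, using inverse-variance-weighted replicate averages. The logarithm is base 2.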
Consider GGAUCUUCUCGAUCUAACAAAAAAGACAAAUCUGCCACAAAGCUUGAGAGCAUCUUCGGAUCCAGAGGCGGCAGCCUUCGGUGGCGCGAUAGCGCUAACGUUCUCAACUAUGACACGCAAAACGCGUGAUCCGUUGAAUGGAGUUUAUCAUG [G62C C96U C129A], for which the “polymerase ribozyme fitness (log ratio)” value is at most -4.2. With GGAUCUUCUCGAUCUAACAAAAAAGACAAAUCUGCCACAAAGCUUGAGAGCAUCUUCGGAUCCAGAGGCGGCAGCCUUCGGUGGCGCGAUAGCGCCAACGUUCUCAACUAUGACACGCAGAACGCGUGCUCCGUUGAAUGGAGUUUAUCAUG [G62C A120G] the figure was -0.94. With GGAUCUUCUCGAUCUAACAAAAAAGACAAAUCUGCCACAAAGCUUGAGAGCAUCUUCGGAUCCAGAGACGGCAGCCUUCGGUGGCGCGAUAGCGCCAACGUUCUCAACUAUGACACGCAAAACGCGUACUCCGUUGAAUGGAGUUUAUCAUG [G62C G68A G128A] the figure was at most -4.2. On to GGAUCUUCUCGAUCUAACAAAAAAGACAAAUCUGCCACAAAGCUUGAGAGCAUCUUCGGAUACAGGGGCGGCAGCCUUCGGUGGCUCGAUAGCGCCAACGUUCUCAACUAUGACACGCAAGACGCGCGCUCCGUUGAAUGGAGUUUAUCAUG [G62A A66G G86U A121G U127C], for which the “polymerase ribozyme fitness (log ratio)” value is at most -4.2.

With GGAUCUUCUCGAUCUAACAAAAAAGACAAAUCUGCCACAAAGCUUGAGAGCAUCUUCGGAUCCAGAGGUGGCAGCCUUCGGUGGCGCGAUAACGCCAACGUUCUCAACUAUGACACGCAAAACGCGUACUCCGUUGAAUGGAGUUUAUCAUG [G62C C69U G92A G128A], the “polymerase ribozyme fitness (log ratio)” value was at most -4.2. With GGAUCUUCUCGAUCUAACAAAAAAGACAAAUCUGCCACAAAGCUUGAGAGCAUCUUCGGAUCCAGAGCCGGCAGCCUUCGGUGGCCAGGUAGCGCCAACGUUCUCAACUAUGACACGCAAAACGCGUGCUCCGUUGAAUGGAGUUUAUCAUG [G62C G68C G86C C87A A89G] the figure was at most -4.2; with GGAUCUUCUCGAUCUAACAAAAAAGACAAAUCUGCCACAAAGCUUGAGAGCAUCUUCGGAUCCAGAGGCGGCAGCCUUCCGUGGCCUGAUAGCGCCAACGUUCUCAACUAUGACACGCAAAACGCGUGCUCCGUUGAAUGGAGUUUAUCAUG [G62C G80C G86C C87U], at most -4.2; with GGAUCUUCUCGAUCUAACAAAAAAGACAAAUCUGCCACAAAGCUUGAGAGCAUCUUCGGAUACAGAGGCGGCAGCCUUCGGUGGCGCGAUAGCGCCAACGUUCUCAACUAUGACAUGCAAAACGCGUGCUCCGUUGAAUGGAGUUUAUCAUG [G62A C116U], -0.0465. Regarding GGAUCUUCUCGAUCUAACAAAAAAGACAAAUCUGCCACAAAGCUUGAGAGCAUCUUCGGAUACAGAGGCGACAGCCUUCGGUGGCGCGAUAGCGCCAACGUUCUCAACUAUGACACGCAAAACCCGUGCUCCGUUGAAUGGAGUUUAUCAUG [G62A G71A G124C], the “polymerase ribozyme fitness (log ratio)” value was at most -4.2. On to GGAUCUUCUCGAUCUAACAAAAAAGACAAAUCUGCCACAAAGCUUGAGAGCAUCUUCGGAUACAGAGGCGGCAGCCAUCGGUGGAGCGAUAGCGCCAACGUUCUCAACUAUGACACGCAAAACGCGUGCUCCGUUGAAUGGAGUUUAUCAUG [G62A U77A C85A], for which the “polymerase ribozyme fitness (log ratio)” value was at most -4.2. In the case of GGAUCUUCUCGAUCUAACAAAAAAGACAAAUCUGCCACAAAGCUUGAGAGCAUCUUCGGAUACGGAGGCGGCAGCCUUCUGUGGCGGGAUAGCGCCAACGUUCUCAACUAUGACACGCAAAACGCGUGCUCCGUUGAAUGGAGUUUAUCAUG [G62A A64G G80U C87G], the “polymerase ribozyme fitness (log ratio)” value is at most -4.2.

On to GGAUCUUCUCGAUCUAACAAAAAAGACAAAUCUGCCACAAAGCUUGAGAGCAUCUUCGGAUCCAGAGGCGGCAGCAUUCGGUGGCGCGAUAGCGCCAACGUUCUCAACUAUGACACGCAAAACGCGUGCUCCGUUGAAUGGAGUUUAUCAUG [G62C C76A], for which the “polymerase ribozyme fitness (log ratio)” value is at most -4.2.

As for GGAUCUUCUCGAUCUAACAAAAAAGACAAAUCUGCCACAAAGCUUGAGAGCAUCUUCGGAUCCAGGGGCGGCAGCCUUCGGUGGCGCGAUAGCGCCAACGUUCUCAACUAUGACACGCAAAACGCGUGCUCCGUUGAAUGGAGUUUAUCAUG [G62C A66G], the “polymerase ribozyme fitness (log ratio)” value is at most -4.2.

For GGAUCUUCUCGAUCUAACAAAAAAGACAAAUCUGCCACAAAGCUUGAGAGCAUCUUCGGAUCCAGAGGCGGCAGCCUUCGGUGGCGCGAUAGCGUCAAUGUUCUCAACUAUGACACGCAAAACGCAUGCUCCGUUGAAUGGAGUUUAUCAUG [G62C C95U C99U G126A], the “polymerase ribozyme fitness (log ratio)” value is at most -4.2. For GGAUCUUCUCGAUCUAACAAAAAAGACAAAUCUGCCACAAAGCUUGAGAGCAUCUUCGGAUCCAGAGGCGGCAGCCUUCUGUGGCGCGAUAGCGCCAACGUUCUCAACUAUGACACGCAAAACGCGUGCUCCGUUGAAUGGAGUUUAUCAUG [G62C G80U], the “polymerase ribozyme fitness (log ratio)” value was at most -4.2.

In the case of GGAUCUUCUCGAUCUAACAAAAAAGACAAAUCUGCCACAAAGCUUGAGAGCAUCUUCGGAUCCAGAGGCGGCAGCAUUCGGCGGCGCGCUAGCUCCAACGUUCUCAACUAUGACAAGCACGACGCGUGCUCCGUUGAAUGGAUUUUAUCAUG [G62C C76A U82C A89C G94U C116A A120C A121G G143U], the “polymerase ribozyme fitness (log ratio)” value was at most -4.2. With GGAUCUUCUCGAUCUAACAAAAAAGACAAAUCUGCCACAAAGCUUGAGAGCAUCUUCGGAUACAGAGGCGGCAGCCUUCGGUGGCACGAUAGCGCCAACGUUCUCAACUAUGACACGCAAACCGCGUGCUCCGUUGAAUGGAGUUUAUCAUG [G62A G86A A122C], the “polymerase ribozyme fitness (log ratio)” value is -1.02.

For the variant GGAUCUUCUCGAUCUAACAAAAAAGACAAAUCUGCCACAAAGCUUGAGAGCAUCUUCGGAUACAGAGGCGGCAGCCUUUGGUGGCGCGAUGGCGCCAACGUUCUCAACUAUGACAUGUAAAACGCGUGCUCCGUUGAAUGGAGUUUAUCAUG [G62A C79U A91G C116U C118U], the “polymerase ribozyme fitness (log ratio)” value was at most -4.2. Consider GGAUCUUCUCGAUCUAACAAAAAAGACAAAUCUGCCACAAAGCUUGAGAGCAUCUUCGGAUCCAGAGGCGGCAGCCUUCGGUGGCGCGAUAGCGCCAACGUUCUCAACUAUGACACGCAAAAGGCGUACUCCGUUGAAUGGAGUCUAUCAUG [G62C C123G G128A U145C], for which the “polymerase ribozyme fitness (log ratio)” value was at most -4.2.

Values taken from the RNAGym collection of RNA variant scans (doi:10.1073/pnas.2313332121).
